# Data as given in paper PMC4336329 (PLoS ONE, 2015).
# Screen size: about 310,000 compounds; about 14,000 (4.5%) showed an effect of 50% or more. Effects have a minus sign here. The list shows a part of the results.
# Target: human ether-à-go-go-related gene (hERG) potassium channel (human, UniProt Q12809)
# Experiment: primary screen, population patch clamp on CHO cells stably expressing hERG
# 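Note: peak tail current of the secondary pulse compared with the same well before compound.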
# Chain of human ether-à-go-go-related gene (hERG) potassium channel (Q12809 whole entry, looked up): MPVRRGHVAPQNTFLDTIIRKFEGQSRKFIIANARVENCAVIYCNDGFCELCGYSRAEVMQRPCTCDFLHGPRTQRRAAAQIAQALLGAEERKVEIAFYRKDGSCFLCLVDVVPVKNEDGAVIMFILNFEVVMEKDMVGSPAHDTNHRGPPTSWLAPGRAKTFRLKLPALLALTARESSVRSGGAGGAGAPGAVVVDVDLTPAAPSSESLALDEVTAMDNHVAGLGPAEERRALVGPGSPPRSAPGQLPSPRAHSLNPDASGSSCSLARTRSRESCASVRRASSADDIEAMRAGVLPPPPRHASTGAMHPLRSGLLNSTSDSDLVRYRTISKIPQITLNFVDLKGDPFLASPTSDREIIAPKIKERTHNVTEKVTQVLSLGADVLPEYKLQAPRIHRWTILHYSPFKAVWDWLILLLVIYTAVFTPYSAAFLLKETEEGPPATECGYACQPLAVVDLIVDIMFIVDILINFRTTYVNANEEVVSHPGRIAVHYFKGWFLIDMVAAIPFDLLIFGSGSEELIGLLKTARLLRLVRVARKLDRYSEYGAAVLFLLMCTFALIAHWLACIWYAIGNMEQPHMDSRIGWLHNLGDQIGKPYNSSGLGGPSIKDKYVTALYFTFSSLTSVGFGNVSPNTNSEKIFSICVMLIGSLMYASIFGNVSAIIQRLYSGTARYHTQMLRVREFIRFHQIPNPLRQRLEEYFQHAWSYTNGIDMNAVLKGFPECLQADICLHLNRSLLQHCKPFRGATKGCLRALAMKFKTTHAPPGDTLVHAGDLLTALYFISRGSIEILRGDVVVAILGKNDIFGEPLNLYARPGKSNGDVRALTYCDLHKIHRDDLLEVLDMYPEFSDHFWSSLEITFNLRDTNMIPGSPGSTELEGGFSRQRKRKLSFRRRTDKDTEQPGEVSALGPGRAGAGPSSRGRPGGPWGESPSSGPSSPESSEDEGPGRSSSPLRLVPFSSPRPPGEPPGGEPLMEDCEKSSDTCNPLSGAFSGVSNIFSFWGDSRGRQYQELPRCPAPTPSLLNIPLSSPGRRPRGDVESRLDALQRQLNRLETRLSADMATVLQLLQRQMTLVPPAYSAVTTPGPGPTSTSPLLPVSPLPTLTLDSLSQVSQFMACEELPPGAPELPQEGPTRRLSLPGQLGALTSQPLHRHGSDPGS
row,SMILES,"hERG current change (%, negative = inhibition) at 10uM"
1,COCCCNc1ccnc2c(Cl)cccc12,-58.5%
2,CCC(C)Sc1nc2c(c(=O)[nH]c(=O)n2C)n1C (centres unmarked),-4.04%
3,CCC(C)Nc1nnnc2c1sc1nc3c(cc12)COC(C)(C)C3 (centres unmarked),-6.79%
4,CCOc1ccc(NC(=O)CN(C)C(=O)c2ccc(N3CCCCCC3)c([N+](=O)[O-])c2)cc1OCC,3.4%
5,COc1cccc(C(=O)Oc2ccc(/C=N/NC(=O)c3ccncc3)cc2OC)c1,3.58%
6,CC(=O)Nc1cccc(/C(C)=N/NS(=O)(=O)c2ccccc2)c1,9.2%
7,CC(C)(C)CN1CCNC(=O)C1CC(=O)NCc1cccc(-n2cccn2)c1 (centres unmarked),11%
8,COc1ccc(C(=O)Sc2ccc(C)cc2)cc1OC,20.2%
9,Cc1scc(C(=O)N/N=C/c2ccc(OC(C)C)cc2)c1C,11.6%
10,Cc1cc(C)n(C(=O)CNC(=O)C2COc3ccccc3O2)n1 (centres unmarked),14.5%
11,COc1ccc(OCC(O)CN2CCN(CC(O)COc3ccc(OC)cc3)CC2)cc1 (centres unmarked),-47.5%
12,CN1C(=O)C(c2ccc([N+](=O)[O-])cc2[N+](=O)[O-])C(=O)N(C)C1=O,19.8%
13,CCc1cc(=O)oc2cc(C)cc(OC(C)C(=O)NCc3ccncc3)c12 (centres unmarked),-56.8%
14,COc1ccc(-c2csc3ncnc(Oc4cccc5ccc(C)nc45)c23)cc1,-6.38%
15,Cc1ccc(C(=O)NC(=S)Nc2cccc(NC(=O)c3ccccc3)c2)cc1[N+](=O)[O-],-5.88%
16,Cc1ccc(S(=O)(=O)N2CCC(C(=O)NCC(C)(C)N3CCOCC3)CC2)c(C)c1,-36.1%
17,CCOC(=O)c1cccc([P+](=O)O)c1,8.14%
18,Cc1ccc(N2C(=O)NC(=O)/C(=C\c3ccsc3)C2=O)cc1C,6.33%
19,COc1ccc(NS(=O)(=O)c2cc3c4c(c2)C(C)C(=O)N4CCC3)cc1 (centres unmarked),10.3%
20,Oc1cccc(/C=N/Nc2ccc(Cl)nn2)c1,-19%
21,COc1ccc(-n2c(-c3ccc(Cl)cc3Cl)n[nH]c2=S)c(OC)c1,15%
22,CC(=O)NC1CC2CCCC(C1)N2CC(=O)NCc1ccc(F)cc1 (centres unmarked),-0.00062%
23,COc1cc(NS(=O)(=O)c2ccc(NC(=O)CSC3=NCCS3)cc2)nc(OC)n1,15.1%

row,SMILES,"hERG current change (%, negative = inhibition) at 10uM"
1,CCc1c(C(=O)NNC(=O)Nc2ccc3c(c2)OCO3)csc1C,18.2%
2,CCc1nc(SCC(=O)Nc2ccc(Br)cn2)n[nH]1,13.3%
3,Cc1ccc(NC(=O)CSCc2n[nH]c(=O)[nH]2)c(Br)c1,3.22%
4,COCc1cc(C)nc(SCC(=O)Nc2ccc3c(c2)OCCO3)c1C#N,13.4%
5,CNC(=O)/C(C#N)=C/c1c(N2CCCCCC2)nc2ccccn2c1=O,10.2%
6,Cc1nc2oc3ccccc3c(=O)c2c(=O)n1Cc1ccccc1,-32.2%
7,C1=CCC(CN2CCNCC2)CC1.O=C(O)C(F)(F)F (centres unmarked),9.96%
8,C[N+]1(C)CC2=Cc3ccccc3CC2C1.[I-] (centres unmarked),19.5%
9,CC(C)(C)C(=O)Nc1nnc(COc2ccc(Cl)cc2)s1,-12.8%
10,CCOc1c2ccc(C(=O)NCCCCc3ccccc3)cc2nn1CC,-14.1%
11,N#Cc1ccccc1NC(=O)c1cc(=O)c2ccccc2o1,-12.2%
12,CCC(C)NC(=O)C1c2ccccc2C(=O)N(c2ccc(OC)cc2)C1c1ccc(OC)cc1 (centres unmarked),10.2%
13,O=C(CS(=O)(=O)c1c[nH]c2ccccc12)NC1CCCCC1,-8.19%
14,CCN(CC)C1CC(=O)N(c2ccc(Br)cc2)C1=O (centres unmarked),12.6%
15,Cc1ccc(-c2ccc(/C=N/n3cnnc3)o2)cc1,9.79%
16,CCOc1ccccc1NC(=O)c1ccc(F)c(S(=O)(=O)N2CCC3(CC2)OCCO3)c1,-18.6%
17,COc1ccc(CCNc2nc(-c3ccco3)cc(C(F)(F)F)n2)cc1OC,5.37%
18,CCC(=O)Nc1ccc(NCc2ccc(-c3ccccc3)cc2)cc1,12.5%
19,CC(=O)Nc1n[nH]c(-c2ccc(C)cc2)c1C,4.49%
20,CCCCn1c(CN(C)Cc2ccccc2)nc2c1c(=O)n(C)c(=O)n2C,-39.9%
21,COc1ccccc1C(C)NC(=O)Cc1ccc(S(=O)(=O)N2CCOCC2)s1 (centres unmarked),-5.65%
22,NC(=O)NOCc1ccccc1,4.91%
23,O=C(NCN1CCN(c2ccccn2)CC1)c1cnccn1,1.92%

row,SMILES,"hERG current change (%, negative = inhibition) at 10uM"
1,Cc1ccc(SC[C@H](c2ccccc2)N2CCN(CCc3ccccc3)CCC2=O)cc1,-74.7%
2,Cc1sc2ncnc(Sc3ccccc3C(=O)Nc3ccc(Br)cc3)c2c1C,2.1%
3,CCSc1nc2sc3c(c2c(=O)[nH]1)CC(C)(CC)OC3 (centres unmarked),19%
4,CC(=O)N1CCc2cc(S(=O)(=O)CCC(=O)Nc3cccc(F)c3)ccc21,7.15%
5,Cc1ccc(N2CC(C(=O)Nc3ccc(S(=O)(=O)Nc4nccs4)cc3)CC2=O)cc1C (centres unmarked),2.57%
6,COc1cc(/C=C/c2cccc[n+]2C)ccc1OCC(=O)Nc1ccccc1C.[I-],8.13%
7,C=CCn1c(SCC(=O)NC2CCS(=O)(=O)C2)nnc1-c1ccncc1 (centres unmarked),19.3%
8,CCOC(=O)c1ccc(NC(=O)C2C3C=CC(C3)C2C(=O)O)cc1 (centres unmarked),4.67%
9,CCOc1ccc(NS(=O)(=O)c2ccc(-c3ccc(=O)[nH]n3)o2)cc1,13.1%
10,CC(=O)Nc1ccc(C(=O)Nc2ccc(S(=O)(=O)N3CCCC3)cc2)cc1,11.8%
11,CCn1c(SCC(=O)N2CCOCC2)nc(O)cc1=O,14.2%
12,Cc1nc2cc(-c3ccccc3)nn2c(C)c1CCC(=O)NCc1ccco1,-37.4%
13,S=C(NCc1ccco1)NCc1ccccc1Cl,19.8%
14,NC(=S)N/N=C/c1coc2ccc(Cl)cc2c1=O,8.1%
15,O=C(O)/C=C\c1cccc(-n2cnnn2)c1,-1.3%
16,Cc1cc(C)n(-c2ccc(NC(=O)C3CCN(Cc4ccccn4)CC3)cc2)n1,-14.5%
17,CC1(C)CC(=O)c2cn3c(nc2C1)nc1ccccc13,-43.4%
18,O=C(COc1ccc(S(=O)(=O)N2CCCCC2)cc1)N1CCCC1,10.9%
19,Cc1ccc(OCc2cc(C(=O)NC3CCOC3)no2)cc1C (centres unmarked),-2.8%
20,COCOc1ccc(/C=C/C(=O)c2c(OCOC)cc(OCOC)c(CC=C(C)C)c2O)cc1OCOC,5.05%
21,CN(C)c1cccc(C(=O)NCCCn2ccc3ccccc32)c1,-1.2%
22,COc1ccc(C(=O)Nc2ccc3oc(Cc4ccc(Cl)cc4)nc3c2)cc1OC,5.63%
23,CCc1ccccc1S(=O)(=O)Cc1ccc(C(=O)NC(C)C)o1,-5.38%

row,SMILES,"hERG current change (%, negative = inhibition) at 10uM"
1,CN(C(=O)COC(=O)c1cncc(Br)c1)C1CCS(=O)(=O)C1 (centres unmarked),24.8%
2,CC(C)N1C(=O)CCC1C(=O)N1CCCc2ccccc21 (centres unmarked),-2.71%
3,O=C(NCc1ccccc1)NC1CCCCC1,16.5%
4,O=c1[nH]c(=O)n(-c2ccc(Cl)cc2)c(O)c1C=Nc1ccc(S(=O)(=O)Nc2nccs2)cc1,22.3%
5,COc1ccc(CCNC(=O)c2cc(C3CC3)nc3c2cnn3C(C)C)cc1,-10.6%
6,Cc1ccc(C(=O)Nc2ccccc2OC(F)F)cc1,-8.63%
7,CC(C)n1nnnc1SCC(=O)c1c(N)n(C2CC2)c(=O)[nH]c1=O,15.9%
8,Cc1ccc(SCCNC(=O)C(CO)(CO)CO)cc1,-0.286%
9,O=C(CNc1ccccc1)N/N=C/c1c(O)ccc2ccccc12,19.3%
10,COc1ccc(C2Nc3ccccc3C(=O)N2NC(C)=O)c(OC)c1 (centres unmarked),14.3%
11,Cc1cc(C)[n+](-c2ccc(Oc3ccccc3)c(S(=O)(=O)[O-])c2)[nH]1,13.6%
12,O=S1(=O)CCOC[C@H](CC2CCCCC2)N1Cc1ccccc1Br,4.87%
13,CSc1ccc(C(=O)C2CCCN(C(=O)c3ccc(C)nc3)C2)cc1 (centres unmarked),-22.4%
14,CC1CCc2[nH]c3ccc(C(=O)O)cc3c2C1 (centres unmarked),28%
15,CCN(CC)S(=O)(=O)c1ccc(Cl)c(C(=O)OC)c1,-10.7%
16,S=C(NCC1COc2ccccc2O1)Nc1ccc(Br)cc1 (centres unmarked),-2.95%
17,O=C(COc1ccc2ccc(=O)oc2c1)OCc1ccccc1,5.7%
18,CCCCn1c(SCC(=O)c2ccc3c(c2)OCCO3)nnc1-c1ccoc1C,-15.4%
19,OC1CCN(c2ncnc3nc[nH]c23)CC1,-0.22%
20,Cc1cc(C(=O)c2cccs2)c(N)s1,-4.17%
21,Cc1nc2ccccc2c(=O)n1NC(=O)c1cncc(Br)c1,14.9%
22,O=C(CCNS(=O)(=O)c1cccc(C(F)(F)F)c1)NC1CC1,-15%
23,COc1ccccc1Nc1nc2ccc(C)cc2n2cnnc12,4.89%
